Reference: patent US20240182596A1, “ANTI-NAPI2B ANTIBODIES AND ANTIBODY-DRUG-CONJUGATES BASED THEREON, THERAPEUTIC METHODS AND USES THEREOF” (Tubulis GmbH, priority 2022, published 2024)

T1: NaPi2b (Homo sapiens, UniProt O95436)
T1 construct: Napi2b antigen consisting of Napi2b-extracellular-loop2 expressed as Fc-fusion-6-His-tagged protein in Expi-HEK293 cells; Fc-fusion; 6-His; made in house; host or cells: Expi-HEK293 cells
T1 sequence (O95436 whole entry, looked up): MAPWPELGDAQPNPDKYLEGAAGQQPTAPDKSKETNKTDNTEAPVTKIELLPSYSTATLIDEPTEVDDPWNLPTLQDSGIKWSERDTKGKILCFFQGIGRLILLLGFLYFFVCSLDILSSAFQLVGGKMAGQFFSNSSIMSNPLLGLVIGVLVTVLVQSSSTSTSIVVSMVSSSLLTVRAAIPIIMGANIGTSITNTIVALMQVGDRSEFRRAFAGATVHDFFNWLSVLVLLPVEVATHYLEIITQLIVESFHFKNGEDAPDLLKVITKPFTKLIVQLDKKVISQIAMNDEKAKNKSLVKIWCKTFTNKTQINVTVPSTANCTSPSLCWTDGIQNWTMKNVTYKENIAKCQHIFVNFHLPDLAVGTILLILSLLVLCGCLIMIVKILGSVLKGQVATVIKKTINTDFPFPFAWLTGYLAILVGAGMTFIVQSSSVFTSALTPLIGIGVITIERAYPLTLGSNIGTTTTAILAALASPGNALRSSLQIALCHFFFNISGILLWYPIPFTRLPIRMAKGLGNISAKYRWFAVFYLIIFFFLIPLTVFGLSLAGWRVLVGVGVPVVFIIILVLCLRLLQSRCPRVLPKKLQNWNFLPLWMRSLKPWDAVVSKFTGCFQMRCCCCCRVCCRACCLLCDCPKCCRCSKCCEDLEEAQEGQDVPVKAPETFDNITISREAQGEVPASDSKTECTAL

T2: HEK293 cells expressing human Napi2c (SLC34A3) (Homo sapiens, UniProt Q8N130)
T2 construct: expressed in transfected cells; host or cells: HEK293
T2 sequence (Q8N130 1-599): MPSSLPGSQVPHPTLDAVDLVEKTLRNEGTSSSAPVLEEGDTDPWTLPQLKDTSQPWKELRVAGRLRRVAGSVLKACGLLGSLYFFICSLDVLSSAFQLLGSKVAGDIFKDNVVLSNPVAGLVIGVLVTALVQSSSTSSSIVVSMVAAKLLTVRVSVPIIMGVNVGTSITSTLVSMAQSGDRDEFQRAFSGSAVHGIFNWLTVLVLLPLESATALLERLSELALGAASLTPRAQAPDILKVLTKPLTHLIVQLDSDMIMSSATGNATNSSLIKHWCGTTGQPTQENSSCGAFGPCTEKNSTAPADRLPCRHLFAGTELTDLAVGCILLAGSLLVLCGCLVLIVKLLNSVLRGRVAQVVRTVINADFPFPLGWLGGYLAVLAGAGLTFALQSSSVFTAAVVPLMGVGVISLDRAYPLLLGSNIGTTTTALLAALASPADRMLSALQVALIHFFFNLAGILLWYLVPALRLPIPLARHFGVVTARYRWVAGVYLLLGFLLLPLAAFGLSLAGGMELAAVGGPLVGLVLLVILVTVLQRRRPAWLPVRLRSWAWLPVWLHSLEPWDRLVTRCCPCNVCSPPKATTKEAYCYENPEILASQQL

B1: AV25: humanized anti-NaPi2b IgG1 antibody, light chain SEQ ID NO: 6, heavy chain SEQ ID NO: 7, Fc-silenced (LALA) (antibody)
heavy: EVQLVQSGAEVVKPGASVKMSCKASGYTFTGYIIHWVKQAPGQGLEWIGAIYPGSGATSYKQKFRGRATLTADTSTSTVYMELSSLRSEDSAVYYCARGETARATFAYWGQGTLVTVSS[human IgG1 constant region with changes skipped]
light: DIQMTQSPSSLSASVGDRVTITCSASQDIGNFLNWYQQKPGKTVKVLIYYASSLYSGVPSRFSGSGSGTDYTLTISSLQPEDFATYYCQQYSKLPLTFGQGTKLELKRTVAAPSVFIFPPSDEQLKSGTASVVCLLNNFYPREAKVQWKVDNALQSGNSQESVTEQDSKDSTYSLSSTLTLSKADYEKHKVYACEVTHQGLSSPVTKSFNRGEC
modifications: Heavy chain without a signal seqeunce; Light chain without a signal seqeunce
B2: AV25-P5(PEG24)-VC-PAB-Exatecan DAR 8: AV25 antibody conjugated to P5(PEG24)-VC-PAB-Exatecan, DAR8 (conjugate)
heavy: EVQLVQSGAEVVKPGASVKMSCKASGYTFTGYIIHWVKQAPGQGLEWIGAIYPGSGATSYKQKFRGRATLTADTSTSTVYMELSSLRSEDSAVYYCARGETARATFAYWGQGTLVTVSS[human IgG1 constant region with changes skipped]
light: B1 light

Key:
[1] = biological target: T1, NaPi2b; test: Binding KD (nmol/L) | ELISA
Excerpt: Table printed on a drawing sheet, FIG. 20
Head of the field: Binding KD (nmol/L) | ELISA
First copying reader's note: Decimal commas and decimal points are mixed as printed; some columns (ADC retention time, cytotoxicity) refer to the antibody-drug conjugates made from the listed mAbs.
Where the first naming reader finds the target: passage: An antibody drug conjugate (ADC) comprising the anti-NaPi2b antibody according to any one of the preceding items.

[2] = biological target: T2, HEK293 cells expressing human Napi2c (SLC34A3); test: Binding to human NaPi2c evaluated by flow cytometry; conditions: 0.002 to 200 nM
Protocol: To determine concentration-dependent binding, HEK293 cells transiently or stably expressing human Napi2a-, Napi2b- and Napi2c-mCherry were incubated with antibodies or ADCs in concentrations ranging from 0.002 to 200 nM, stained with an Alexa-dye-labeled anti-human IgG H+L secondary antibody (Thermo Fisher Scientific), and analyzed by flow cytometry. Mean fluorescence intensity (MFI) ratios were normalized to the non-specific binding control. The assay was performed in duplicates and data points were analyzed by a non-linear regression using a one-site specific binding model using Prism 9 software.

[3] = test system: OVCAR-3 and HCC-78 cells; test: DNA damage / apoptosis markers (cleaved PARP, active caspase 3, pH2AX) by flow cytometry, dose response; assay type: cell-based; conditions: 0.05-12 μg/ml, 72 h
Protocol: Topoisomerase-I inhibition by delivery of exatecan via the AV25-P5(PEG24)-VC-PAB-Exatecan DAR8 ADC induces DNA damage as detected by the accumulation of cleaved PARP, active caspase 3 and phosphorylated histon 2AX (pH2AX). OVCAR-3 and HCC-78 cells (both Napi2b^high) were treated with increasing concentrations (0.05-12 μg/ml) of AV25-P5(PEG24)-VC-PAB-Exatecan or an Isotype control (isotype-P5(PEG24)-VC-PAB-Exatecan for 72 h. Cells were stained with live/dead stain (Thermo Fisher Scientific) and after fixation and permeabilization using the Fixation/Permeabilization kit (BD Biosciences) for the DNA damage markers active caspase 3, cleaved PARP and pH2AX (Ser-139) (all BD Biosciences) and analyzed by flow cytometry. Graphs show means of n=2±SEM.
FIGS. 42A and 42B show the dose-dependent induction of DNA-damage and apoptosis markes in response to treatment with increasing concentrations of AV25-P5(PEG24)-VC-PAB-Exatecan DAR8. A corresponding non-targeting isotype control conjugate was included as negative control. HCC-78 cells (A, NaPi2b^high) and OVCAR-3 cells (B, NaPi2b^high) were treated with increasing concentrations (0.05-12 μg/ml) of AV25-P5(PEG24)-VC-PAB-Exatecan DAR8 or the Isotype ADC (Isotype-P5(PEG24)-VC-PAB-Exatecan DAR8) for 72 h, Cells were stained for cleaved PARP (left), Caspase 3 (middle) and pH2AX (right) and analyzed via flow cytometry. Graphs show means of n=2±SEM.

| Molecule | Kd [1] | Binding (MFI ratio) [2] | Accumulation of DNA damage (cleaved PARP-, active caspase 3- and pH2AX-positive cells) [3] |
| --- | --- | --- | --- |
| B1 | 71 nM | not Napi2a (SLC34A1) or Napi2c | – |
| B2 | – | – | induces a concentration-dependent accumulation of DNA damage |
